± gives the standard deviation of the averaged measurements. The full ranking holds about 4,000 sequences; the median of “arbitrary fluorescence units” is about 830, and the highest 2% start at about 6,500. This part holds few or none of the hits.
Target: RUNX1 (UniProt Q01196)
Test: RUNX1 binding intensity (PBM fluorescence), RUNX1 alone (arbitrary fluorescence units); higher = stronger binding
Conditions: RUNX1 concentration 2 nM; ETS1 concentration 0 nM
Description: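 gcPBM on 36-bp genomic-derived probes (partner site mutated) containing one RUNX1 site and no ETS1 site. Recombinant human RUNX1 (2 nM) was incubated alone or with ETS1 (25 nM) and detected by anti-RUNX1 antibody fluorescence. Values are medians over 4 replicate spots (not normalised). The probes sit in constant array flanks that are not printed.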
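Further: Full-length recombinant human RUNX1 bound to double-stranded DNA microarray spots, detected with an Alexa488-labelled secondary antibody after the anti-RUNX1 primary, read as scanned spot fluorescence.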

UniProt Q01196, sequence (Q01196 whole entry): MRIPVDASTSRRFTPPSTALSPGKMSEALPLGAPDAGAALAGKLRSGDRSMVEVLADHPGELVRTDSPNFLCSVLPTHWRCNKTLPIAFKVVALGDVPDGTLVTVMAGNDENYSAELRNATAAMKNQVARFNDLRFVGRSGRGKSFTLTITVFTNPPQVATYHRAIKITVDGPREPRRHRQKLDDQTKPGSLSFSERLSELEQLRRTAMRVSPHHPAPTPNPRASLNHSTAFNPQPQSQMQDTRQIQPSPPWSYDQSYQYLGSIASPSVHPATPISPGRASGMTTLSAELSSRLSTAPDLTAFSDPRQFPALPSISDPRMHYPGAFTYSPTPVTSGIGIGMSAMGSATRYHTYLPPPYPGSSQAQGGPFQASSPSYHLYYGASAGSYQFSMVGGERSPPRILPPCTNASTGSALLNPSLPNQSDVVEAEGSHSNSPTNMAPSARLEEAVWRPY

Row | Sequence | RUNX1 binding intensity
1 | GATCACAAAAACCACTCGTTTCCAGTCCACAGCTAG | 883
2 | GGGTCCTTCAGGGTTTTGTGTCGAATCTGCGGCGGC | 721
3 | TGGGAACTTGCTGTGGAGGAGTGCATTGTGGGACTT | 789
4 | CTGGGTTGTGGCACTGAGCCAGCAAGTCCCCTGGGT | 697
5 | AGCGCTGCGGGGAGGGGGAGCAAGGACTGGACGAGA | 848
6 | CAGGTTGTTGAGGAGGTGGAGAAACCGCAACCTCGT | 3390
7 | TGCCTTCTACTCCAGAACTCAGACCGCTGCCTTCTA | 960
8 | ACCTTGTGGCCTATTCTAACCCCAGCCCGGCAACCA | 1160
9 | AACAGCTTAGAAAGTAAGTGTGGCTTTGCTTAAGAC | 738
10 | GAAGCCGCACCGCCCCCCGCGCGCCGGCAAGCTCAC | 851
11 | TCTGTGCGGGCTGCAGCTCTCAGACTCAGGCTGAGG | 701
12 | CTACAGGCAGTTCGAACTGGGCGGAGCCCACCGCAG | 733
13 | GCTGGGGCAGCAAGCTTCTAGGCCACAGACAGGACG | 710
14 | TAAAATCGTCTCCCGACTCGCTCTGCGGCCCCACGC | 815
15 | GACTCGCTCTGCGGCCCCACGCAGGGAGCCTCCTTG | 905
16 | CTGTGGGTAACTGAAATCACAGCAAGTGGAACTGTA | 780
17 | CGTGACCACGGGGACCGAAAGTGGCGCCCGGCGCAA | 677
18 | ATTTTTCGTTCCTTCTCCCGTCCCCGCAGAGTGCAA | 1810
19 | CTGCTGGGCCCCGTCCTGTCAGCGGTTGCTCTTTAC | 946
20 | CCGGGACCTGAAGAGGGAGCCGTGGTTGCTGGAACT | 792
21 | GAGCAAGCAGTGGTCAGGGAAGGCTTGCTGGAAGAG | 873

Row | Sequence | RUNX1 binding intensity
22 | TTGACCCGAACGTGGACAAAAGACCGCAAAGGACGC | 1080
23 | CCCTTGCCCGCAGGACGGCGGCCCGAAAGTGACGTA | 1130
24 | CCTTGCTTTCAGGGGACTGCCTGGGACAACCACGCA | 714
25 | GAAATCACCTCCTTTTGCAAAACCACAGGTGTTTTG | 982
26 | CACTGTGCTCTAACCACACTGACATGCGCCTGCCTC | 1470
27 | GACTAACGGCAAAGAAGGACGAGTACGCGGTCCCGG | 679
28 | GGAGGAGACCGCGGCGTTAGCGTGACCCGGGTGCGC | 664
29 | ACCTCATGCTGCTGTTCTTGTGTGTGGTTGAGCAGT | 870
30 | TGAAACCGCTGCCGCCGCCCTCGGGTTCAGCCGCGG | 914
31 | GGCCTCCGCGCCTGCAGAACTACAGCTCCCACAAGG | 825
32 | GAGCTGCTCCGACAGGGTGGTGTGTGGTCAACCTTG | 808
33 | TCCCCTGTGGGTTCCCCTCCCCAGCATGTTGCCACC | 919
34 | TCAATAAGACAGGGTGTTCTCCAACCGCATTAAGCT | 828
35 | TCCCCGGCAGCTCCCTCGCCCCGACCGCAGTGTTCC | 1820
36 | TATTACTTCAGGGAGCCCAGGGGGAACCGCGCCCCG | 651
37 | TGCTTACGGCGGGCGCTTGCTCCCCGCGGTCCGCAC | 673
38 | GGGTGGTTACTCGGCATGCTGTTGGGCTTACGGTGT | 736
39 | AGGTGGTTTGGCCTTTTTGTCCAGCAGCATGTGATA | 752
40 | GGGGTGGGGACACCGCGGAGGCCCGGGAATGGTGAC | 775
41 | TTTAAACCCACAAGCAGGCCCCTGCCCCTTCATGGA | 1410
42 | ACCAAGTTGCGGGCAGGATCTTTCTGTAGTTTGCCT | 1430

Row | Sequence | RUNX1 binding intensity
43 | GGAGGCTGCGGGGGCCGCACTCAGCCTGAATCCCTG | 768
44 | TAGGCTGGAAAGCACCACCGTCCTCCCGCAGGCCGC | 760
45 | CAAGTGTGTGGTCTCCTCTTATTCCCGGGTCTGTCA | 903
46 | TCGCCTGCGTTGCGCTGGTTGTGGGCTTTCAGCGGC | 679
47 | GAAGGGACGAAGCCTGAGAACTGTGGTCTCCTGAAG | 719
48 | AGCAGCAAGTATGTTGAAAGTCATAACCACAGCAAA | 741
49 | CTCTTCTCAGCAAGGGGCTGTGGGATGTAGGATTCC | 797
50 | GAGAGAGTGCCGCGTAGGGGTCACCGCGAGTCGCAA | 701
51 | GCTGTGGGCGGTGCAGGAGGGATCCAGAAGAGACGA | 826
52 | CAACTCACCTCCTCTGGCAACAACCACTAATCCACT | 1350
53 | AAGGGCAAAGCCACAGCCACTTGCGCCCAGCGCTTC | 737
54 | ACCCACCCGAAAGTCCTCCTGGCCCACAAGCTCCGC | 1080
55 | AAGATGGCGGCCGCAGAGCCGCCCACCTCCCCCTCC | 819
56 | AAGCCACTGCCTGGTGACCCAGTGGTAAACACTTGA | 722
57 | CGAGTCAGCAAATCACAGCTCTGCGGGTGGGCTCCT | 739
58 | CGTTCGCGGTTCCTCTCGGCCCCGTATGTGACTGTT | 1230
59 | CTGCCATGAAGGGTTCTGGTTTGAGGTCTCCTCTTA | 741
60 | CCACCGTGCGGTAAACTGCACCTCCTCACTTAGCAC | 1800
61 | CGAGCGCATGATGGGGTTGTCGACCGCGCGGCGAGC | 616
62 | TCCCTGGAGCGGTTTTAGGGGGCCGCCTCCTTGGCC | 775 ± 21

Source: the supplement of paper PMC10681739
